According to patent publication US20140162952A1 (ONCOTHERAPY SCIENCE, published 2014):

Key:
Flag-full-length ERAP1 = biological target: T1, Flag-full-length ERAP1 (human, UniProt Q5TH69); experiment: co-immunoprecipitation from transfected HEK293T cells, IP anti-PP1α, blot anti-FLAG
T1 construct: Expressed by transfection in COS-7 or HEK293T cells and used as cell lysate; also called Flag-ERAP1; FLAG-ERAP1; not shown: Flag tag

[1] = biological target: T2, FLAG-ERAP1-ΔPP1α (ERAP1 construct in which 1228-1232 aa (KAVSF) were deleted) (human, UniProt Q5TH69); experiment: as above
T2 construct: expressed in HEK293T cells; also called ERAP1 construct (ΔPP1α); not shown: FLAG tag

B1: inherent PP1α (protein phosphatase 1α) (enzyme)
chain: not shown
notes: Endogenous in MCF-7 and HEK293T cells; also called PP1α polypeptide
B1: binds (Flag-full-length ERAP1); no binding (tested: 2.0 µg DNA) [1].
